Data as given in publication PMC12820563, “FoxP3 forms a head-to-head dimer in vivo and stabilizes its multimerization on adjacent microsatellites”.
The list shows a part of the results.

These sequences were tested against T1, MBP-FoxP1dN (Mus musculus, UniProt P58462 326-579) (assay: PD-seq (MBP pull-down with sequencing); 20 mM Tris-HCl pH 7.5, 100 mM NaCl, 1.5 mM MgCl2, 0.4 uM protein, 0.1 uM dsDNA library, 30 min, room temperature, amylose pull-down; high values mean tight binding). Conditions: protein: recombinant; tags: His6-MBP; chain copies: 2; dsDNA, one strand shown.
T1 sequence: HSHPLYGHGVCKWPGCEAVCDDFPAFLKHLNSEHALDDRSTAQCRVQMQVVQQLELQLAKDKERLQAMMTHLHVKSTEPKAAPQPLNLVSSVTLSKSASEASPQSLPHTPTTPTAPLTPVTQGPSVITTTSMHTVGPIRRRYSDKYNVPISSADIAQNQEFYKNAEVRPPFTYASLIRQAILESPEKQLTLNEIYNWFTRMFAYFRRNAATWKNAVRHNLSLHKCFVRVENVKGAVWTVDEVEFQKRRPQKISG
Procedure, shortened: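 A degenerate double-stranded DNA library, filled in with Klenow, was added at 0.1 µM to 0.4 µM His6-MBP-tagged mouse FoxP3 or FoxP1 fragment lacking the N-terminus, expressed in E. coli. Incubation lasted 30 min at room temperature in Tris pH 7.5 buffer with NaCl and MgCl2, after which complexes were collected on amylose resin, washed three times, digested with proteinase K to free the DNA, barcoded by PCR and sequenced by Illumina. Binding is the pooled-replicate reads-per-million enrichment of pull-down over input.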

Sequence	binding signal
GATGATTGTTCTCCCAGCTGATGAATTAGTGAAGTCGAGTAAACAAATTTTCCTAATCTTTCTGTTCAAGCGCCATCTAC	0.872 RPM ratio (pull-down/input)
GATGATTGTTCTCCCAGCTGATGAATTCGCCTTCTCGAGTAAACAAATTTTCCTAATCTTTCTGTTCAAGCGCCATCTAC	0.822 RPM ratio (pull-down/input)
GATGATTGTTCTCCCAGCTGATGAATTGTAAATTTCGAGTAAACAAATTTTCCTAATCTTTCTGTTCAAGCGCCATCTAC	1.07 RPM ratio (pull-down/input)
GATGATTGTTCTCCCAGCTGATGAATTAGAATATTCGAGTAAACAAATTTTCCTAATCTTTCTGTTCAAGCGCCATCTAC	1.01 RPM ratio (pull-down/input)
GATGATTGTTCTCCCAGCTGATGAATTATCGAATTCGAGTAAACAAATTTTCCTAATCTTTCTGTTCAAGCGCCATCTAC	1.03 RPM ratio (pull-down/input)
GATGATTGTTCTCCCAGCTGATGAATTGTTTTGGTCGAGTAAACAAATTTTCCTAATCTTTCTGTTCAAGCGCCATCTAC	2.02 RPM ratio (pull-down/input)
GATGATTGTTCTCCCAGCTGATGAATTAGTAGAGTCGAGTAAACAAATTTTCCTAATCTTTCTGTTCAAGCGCCATCTAC	0.99 RPM ratio (pull-down/input)
GATGATTGTTCTCCCAGCTGATGAATTGGTTAAATCGAGTAAACAAATTTTCCTAATCTTTCTGTTCAAGCGCCATCTAC	1.17 RPM ratio (pull-down/input)
GATGATTGTTCTCCCAGCTGATGAATTGTTGTGCTCGAGTAAACAAATTTTCCTAATCTTTCTGTTCAAGCGCCATCTAC	2.06 RPM ratio (pull-down/input)
GATGATTGTTCTCCCAGCTGATGAATTAAACTGTTCGAGTAAACAAATTTTCCTAATCTTTCTGTTCAAGCGCCATCTAC	1.01 RPM ratio (pull-down/input)
GATGATTGTTCTCCCAGCTGATGAATTTTGGTTGTCGAGTAAACAAATTTTCCTAATCTTTCTGTTCAAGCGCCATCTAC	1.24 RPM ratio (pull-down/input)
GATGATTGTTCTCCCAGCTGATGAATTCCGTCCTTCGAGTAAACAAATTTTCCTAATCTTTCTGTTCAAGCGCCATCTAC	0.801 RPM ratio (pull-down/input)
GATGATTGTTCTCCCAGCTGATGAATTATTTCCGTCGAGTAAACAAATTTTCCTAATCTTTCTGTTCAAGCGCCATCTAC	1.04 RPM ratio (pull-down/input)
GATGATTGTTCTCCCAGCTGATGAATTCACTCGGTCGAGTAAACAAATTTTCCTAATCTTTCTGTTCAAGCGCCATCTAC	0.762 RPM ratio (pull-down/input)
GATGATTGTTCTCCCAGCTGATGAATTCTATTCCTCGAGTAAACAAATTTTCCTAATCTTTCTGTTCAAGCGCCATCTAC	0.893 RPM ratio (pull-down/input)
GATGATTGTTCTCCCAGCTGATGAATTACGCTCGTCGAGTAAACAAATTTTCCTAATCTTTCTGTTCAAGCGCCATCTAC	0.996 RPM ratio (pull-down/input)

Sequence	binding signal
GATGATTGTTCTCCCAGCTGATGAATTACTTCTCTCGAGTAAACAAATTTTCCTAATCTTTCTGTTCAAGCGCCATCTAC	0.995 RPM ratio (pull-down/input)
GATGATTGTTCTCCCAGCTGATGAATTGAGAATCTCGAGTAAACAAATTTTCCTAATCTTTCTGTTCAAGCGCCATCTAC	0.775 RPM ratio (pull-down/input)
GATGATTGTTCTCCCAGCTGATGAATTTTGAAACTCGAGTAAACAAATTTTCCTAATCTTTCTGTTCAAGCGCCATCTAC	0.95 RPM ratio (pull-down/input)
GATGATTGTTCTCCCAGCTGATGAATTTTTCGCTTCGAGTAAACAAATTTTCCTAATCTTTCTGTTCAAGCGCCATCTAC	0.91 RPM ratio (pull-down/input)
GATGATTGTTCTCCCAGCTGATGAATTCCTCCAGTCGAGTAAACAAATTTTCCTAATCTTTCTGTTCAAGCGCCATCTAC	0.839 RPM ratio (pull-down/input)
GATGATTGTTCTCCCAGCTGATGAATTCTGAGACTCGAGTAAACAAATTTTCCTAATCTTTCTGTTCAAGCGCCATCTAC	0.757 RPM ratio (pull-down/input)
GATGATTGTTCTCCCAGCTGATGAATTGAGCTTTTCGAGTAAACAAATTTTCCTAATCTTTCTGTTCAAGCGCCATCTAC	0.926 RPM ratio (pull-down/input)
GATGATTGTTCTCCCAGCTGATGAATTCTCACGGTCGAGTAAACAAATTTTCCTAATCTTTCTGTTCAAGCGCCATCTAC	0.804 RPM ratio (pull-down/input)
GATGATTGTTCTCCCAGCTGATGAATTCACGTCATCGAGTAAACAAATTTTCCTAATCTTTCTGTTCAAGCGCCATCTAC	0.991 RPM ratio (pull-down/input)
GATGATTGTTCTCCCAGCTGATGAATTTGATACGTCGAGTAAACAAATTTTCCTAATCTTTCTGTTCAAGCGCCATCTAC	1.03 RPM ratio (pull-down/input)
GATGATTGTTCTCCCAGCTGATGAATTCATTCTTTCGAGTAAACAAATTTTCCTAATCTTTCTGTTCAAGCGCCATCTAC	0.946 RPM ratio (pull-down/input)
GATGATTGTTCTCCCAGCTGATGAATTATCGCAGTCGAGTAAACAAATTTTCCTAATCTTTCTGTTCAAGCGCCATCTAC	0.952 RPM ratio (pull-down/input)
GATGATTGTTCTCCCAGCTGATGAATTTTACTCTTCGAGTAAACAAATTTTCCTAATCTTTCTGTTCAAGCGCCATCTAC	0.856 RPM ratio (pull-down/input)
GATGATTGTTCTCCCAGCTGATGAATTTGTAAACTCGAGTAAACAAATTTTCCTAATCTTTCTGTTCAAGCGCCATCTAC	1.41 RPM ratio (pull-down/input)
GATGATTGTTCTCCCAGCTGATGAATTCTCTGCATCGAGTAAACAAATTTTCCTAATCTTTCTGTTCAAGCGCCATCTAC	1.15 RPM ratio (pull-down/input)
